What all share (test): cell-based or functional assay
Assay [1] addresses T1, IL-1R (IL-1 Receptor) (UniProt P14778 18-569, limits assumed).
T1 sequence (looked up): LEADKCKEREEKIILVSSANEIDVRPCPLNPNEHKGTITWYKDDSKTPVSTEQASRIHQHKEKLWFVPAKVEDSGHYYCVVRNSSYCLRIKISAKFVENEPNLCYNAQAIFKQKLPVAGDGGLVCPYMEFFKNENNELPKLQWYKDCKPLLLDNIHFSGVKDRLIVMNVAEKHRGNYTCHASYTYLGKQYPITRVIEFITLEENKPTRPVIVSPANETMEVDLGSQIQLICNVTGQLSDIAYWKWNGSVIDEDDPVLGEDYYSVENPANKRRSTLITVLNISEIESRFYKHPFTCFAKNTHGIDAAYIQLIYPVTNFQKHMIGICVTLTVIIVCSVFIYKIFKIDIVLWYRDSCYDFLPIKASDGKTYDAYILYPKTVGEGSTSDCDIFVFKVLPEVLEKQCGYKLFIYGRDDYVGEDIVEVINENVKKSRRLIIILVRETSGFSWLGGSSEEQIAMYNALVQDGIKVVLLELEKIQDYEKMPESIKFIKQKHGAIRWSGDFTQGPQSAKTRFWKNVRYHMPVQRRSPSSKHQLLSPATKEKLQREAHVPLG

The target of assay [2] is T1, IL-1R (IL-1 Receptor). This is another data set of the same source.
The target in assay [3] is T1, IL-1R (IL-1 Receptor). The source holds these as a separate data set.
Assay [4] has as its target T2, human CD8 alpha (human, UniProt P01732 22-235).
The target of assay [5] is T1, IL-1R (IL-1 Receptor). The source holds these as a separate data set.
In assay [6] the target is T2, human CD8 alpha. This is another data set of the same source.
T2 sequence (P01732 22-235): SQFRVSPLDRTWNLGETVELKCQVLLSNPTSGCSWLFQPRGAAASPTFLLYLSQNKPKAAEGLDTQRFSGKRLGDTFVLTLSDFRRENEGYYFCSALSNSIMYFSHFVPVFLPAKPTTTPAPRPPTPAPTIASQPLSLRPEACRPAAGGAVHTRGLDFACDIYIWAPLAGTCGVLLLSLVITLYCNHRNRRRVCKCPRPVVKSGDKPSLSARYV

Like-named read-outs stand apart in the source and are kept apart here.

B1: CD8 VHH_5GGS_Fc_hole + Fc-knob_20GGS_IL1α delta 1-6 (Fc fusion)
chain 1: DVQLQESGGGLVQPGGSLRLSCAASGSIFSINVMGWYRQTPGKERELVAKITNFGITSYADSAQGRFTISRGNAKNTVYLQMNSLKPEDTAVYYCNLDTTGWGPPPYQYWGQGTQVTVSSGGSGGSGGSGGSGGSDKTHTCPPCPAPEAAGGPSVFLFPPKPKDTLMISRTPEVTCVVVDVSHEDPEVKFNWYVDGVEVHNAKTKPREEQYNSTYRVVSVLTVLHQDWLNGKEYKCQVSNKALPAPIEKTISKAKGQPREPQVCTLPPSRDELTKNQVSLSCAVKGFYPSDIAVEWESNGQPENNYKTTPPVLDSDGSFFLVSKLTVDKSRWQQGNVFSCSVMHEALHNHYTQKSLSLSPGK
chain 2: [letters of human IgG1 Fc with changes not shown]GGSGGSGGSGGSGGSGGSGGSGGSGGSGGSGGSGGSGGSGGSGGSGGSGGSGGSGGSGGSLSNVKYNFMRIIKYEFILNDALNQSIIRANDQYLTAAALHNLDEAVKFDMGAYKSSKDDAKITVILRISKTQLYVTAQDEDQPVLLKEMPEIPKTITGSETNLLFFWETHGTKNYFTSVAHPNLFIATKQDYWVCLAGGPPSITDFQILENQA
In the case of B1, in the assay with IL-1R (IL-1 Receptor) [1], the “NF-KB signal, -CD8 cells, 1 ng/ml” value is 0.01 rel. to 100 ng/ml IL1α; the “NF-KB signal, -CD8 cells, 10 ng/ml” value was 0.03 rel. to 100 ng/ml IL1α; the “NF-KB signal, -CD8 cells, 100 ng/ml” value was 0.14 rel. to 100 ng/ml IL1α; the “NF-KB signal, -CD8 cells, 1000 ng/ml” value is 0.61 rel. to 100 ng/ml IL1α. Besides, in the assay with IL-1R (IL-1 Receptor) [2], the “EC50 mock transfected (NF-KB reporter, HEK293T)” value (“EC50 mock transfected” for short) was found to be 2960 ng/mL. The “EC50 parental cell line (SEAP, HekBlue-IL-1β)” value with IL-1R (IL-1 Receptor) [3] came out at 349 ng/mL.

B2: CD8 VHH_5GGS_Fc_hole + Fc-knob_20GGS_IL1α delta 1-6_M15G (Fc fusion)
chain 1: B1 chain 1
chain 2: [letters of human IgG1 Fc with changes not shown]GGSGGSGGSGGSGGSGGSGGSGGSGGSGGSGGSGGSGGSGGSGGSGGSGGSGGSGGSGGSLSNVKYNFGRIIKYEFILNDALNQSIIRANDQYLTAAALHNLDEAVKFDMGAYKSSKDDAKITVILRISKTQLYVTAQDEDQPVLLKEMPEIPKTITGSETNLLFFWETHGTKNYFTSVAHPNLFIATKQDYWVCLAGGPPSITDFQILENQA
Take B2: in the assay with IL-1R (IL-1 Receptor) [1], the “NF-KB signal, -CD8 cells, 1 ng/ml” value is 0.02 rel. to 100 ng/ml IL1α; the “NF-KB signal, -CD8 cells, 10 ng/ml” value was 0.02 rel. to 100 ng/ml IL1α; the “NF-KB signal, -CD8 cells, 100 ng/ml” value is 0.01 rel. to 100 ng/ml IL1α; the “NF-KB signal, -CD8 cells, 1000 ng/ml” value is 0.06 rel. to 100 ng/ml IL1α.

B3: CD8 VHH_5GGS_Fc_hole + Fc-knob_20GGS_IL1α delta 1-6_N29D_C141S (Fc fusion)
chain 1: B1 chain 1
chain 2: [letters of human IgG1 Fc with changes not shown]GGSGGSGGSGGSGGSGGSGGSGGSGGSGGSGGSGGSGGSGGSGGSGGSGGSGGSGGSGGSLSNVKYNFMRIIKYEFILNDALDQSIIRANDQYLTAAALHNLDEAVKFDMGAYKSSKDDAKITVILRISKTQLYVTAQDEDQPVLLKEMPEIPKTITGSETNLLFFWETHGTKNYFTSVAHPNLFIATKQDYWVSLAGGPPSITDFQILENQA
For the molecule B3, in the assay with human CD8 alpha [4], the “EC50 CD8 transfected (NF-KB reporter, HEK293T)” value (shortened to “EC50 CD8 transfected”) was 0.027 ng/mL and the “Ratio (EC50 mock / CD8 transfected)” value amounted to 26500. Besides, the “EC50 mock transfected” value with IL-1R (IL-1 Receptor) [5] was determined as 715 ng/mL.

B4: CD8 VHH_5GGS_Fc_hole + Fc-knob_20GGS_IL1α delta 1-6_S31G_C141A (Fc fusion)
chain 1: B1 chain 1
chain 2: [letters of human IgG1 Fc with changes not shown]GGSGGSGGSGGSGGSGGSGGSGGSGGSGGSGGSGGSGGSGGSGGSGGSGGSGGSGGSGGSLSNVKYNFMRIIKYEFILNDALNQGIIRANDQYLTAAALHNLDEAVKFDMGAYKSSKDDAKITVILRISKTQLYVTAQDEDQPVLLKEMPEIPKTITGSETNLLFFWETHGTKNYFTSVAHPNLFIATKQDYWVALAGGPPSITDFQILENQA
Take B4: in the assay with human CD8 alpha [4], the “EC50 CD8 transfected” value turned out to be 8.7e-08 ng/mL and the “Ratio (EC50 mock / CD8 transfected)” value turned out to be 5.1e+08. Further, the “EC50 mock transfected” value in the assay with IL-1R (IL-1 Receptor) [5] amounted to 44.6 ng/mL.

B5: CD8 VHH_5GGS_Fc_hole + Fc-knob_20GGS_IL1α delta 1-6_N29A (Fc fusion)
chain 1: B1 chain 1
chain 2: [letters of human IgG1 Fc with changes not shown]GGSGGSGGSGGSGGSGGSGGSGGSGGSGGSGGSGGSGGSGGSGGSGGSGGSGGSGGSGGSLSNVKYNFMRIIKYEFILNDALAQSIIRANDQYLTAAALHNLDEAVKFDMGAYKSSKDDAKITVILRISKTQLYVTAQDEDQPVLLKEMPEIPKTITGSETNLLFFWETHGTKNYFTSVAHPNLFIATKQDYWVCLAGGPPSITDFQILENQA
For the molecule B5, in the assay with human CD8 alpha [6], the “EC50 CD8 cell line (SEAP, HekBlue-IL-1β)” value is 0.0002 ng/mL and the “Ratio (EC50 parental / CD8 cell line)” value worked out at 12500. The “EC50 parental cell line (SEAP, HekBlue-IL-1β)” value with IL-1R (IL-1 Receptor) [3] came to 2.5 ng/mL.

B6: CD8 VHH_5GGS_Fc_hole + Fc-knob_20GGS_IL1α delta 1-6_S31A_C141A (Fc fusion)
chain 1: B1 chain 1
chain 2: [letters of human IgG1 Fc with changes not shown]GGSGGSGGSGGSGGSGGSGGSGGSGGSGGSGGSGGSGGSGGSGGSGGSGGSGGSGGSGGSLSNVKYNFMRIIKYEFILNDALNQAIIRANDQYLTAAALHNLDEAVKFDMGAYKSSKDDAKITVILRISKTQLYVTAQDEDQPVLLKEMPEIPKTITGSETNLLFFWETHGTKNYFTSVAHPNLFIATKQDYWVALAGGPPSITDFQILENQA
For B6, in the assay with human CD8 alpha [4], the “EC50 CD8 transfected” value worked out at 1.9e-07 ng/mL and the “Ratio (EC50 mock / CD8 transfected)” value amounted to 1.5e+08. For the same molecule, in the assay with IL-1R (IL-1 Receptor) [5], the “EC50 mock transfected” value worked out at 29.5 ng/mL.

B7: CD8 VHH_5GGS_Fc_hole + Fc-knob_20GGS_IL1α delta 1-6_N29A_C141S (Fc fusion)
chain 1: B1 chain 1
chain 2: [letters of human IgG1 Fc with changes not shown]GGSGGSGGSGGSGGSGGSGGSGGSGGSGGSGGSGGSGGSGGSGGSGGSGGSGGSGGSGGSLSNVKYNFMRIIKYEFILNDALAQSIIRANDQYLTAAALHNLDEAVKFDMGAYKSSKDDAKITVILRISKTQLYVTAQDEDQPVLLKEMPEIPKTITGSETNLLFFWETHGTKNYFTSVAHPNLFIATKQDYWVSLAGGPPSITDFQILENQA
As for B7, in the assay with human CD8 alpha [4], the “EC50 CD8 transfected” value amounted to 6e-10 ng/mL and the “Ratio (EC50 mock / CD8 transfected)” value is 4e+08. Besides, in the assay with IL-1R (IL-1 Receptor) [5], the “EC50 mock transfected” value turned out to be 0.24 ng/mL.

B8: CD8 VHH_5GGS_Fc_hole + Fc-knob_20GGS_IL1α delta 1-6_S31G_C141S (Fc fusion)
chain 1: B1 chain 1
chain 2: [letters of human IgG1 Fc with changes not shown]GGSGGSGGSGGSGGSGGSGGSGGSGGSGGSGGSGGSGGSGGSGGSGGSGGSGGSGGSGGSLSNVKYNFMRIIKYEFILNDALNQGIIRANDQYLTAAALHNLDEAVKFDMGAYKSSKDDAKITVILRISKTQLYVTAQDEDQPVLLKEMPEIPKTITGSETNLLFFWETHGTKNYFTSVAHPNLFIATKQDYWVSLAGGPPSITDFQILENQA
As to B8, in the assay with human CD8 alpha [4], the “EC50 CD8 transfected” value is 0.0003 ng/mL and the “Ratio (EC50 mock / CD8 transfected)” value is 68700. For the same molecule, the “EC50 mock transfected” value with IL-1R (IL-1 Receptor) [5] came out at 20.6 ng/mL.

B9: CD8 VHH_5GGS_Fc_hole + Fc-knob_20GGS_IL1α delta 1-6_N29G_C141A (Fc fusion)
chain 1: B1 chain 1
chain 2: [letters of human IgG1 Fc with changes not shown]GGSGGSGGSGGSGGSGGSGGSGGSGGSGGSGGSGGSGGSGGSGGSGGSGGSGGSGGSGGSLSNVKYNFMRIIKYEFILNDALGQSIIRANDQYLTAAALHNLDEAVKFDMGAYKSSKDDAKITVILRISKTQLYVTAQDEDQPVLLKEMPEIPKTITGSETNLLFFWETHGTKNYFTSVAHPNLFIATKQDYWVALAGGPPSITDFQILENQA
As to B9, in the assay with human CD8 alpha [4], the “EC50 CD8 transfected” value amounted to 0.097 ng/mL and the “Ratio (EC50 mock / CD8 transfected)” value was 306. The “EC50 mock transfected” value in the assay with IL-1R (IL-1 Receptor) [5] was 29.7 ng/mL.

B10: CD8 VHH_5GGS_Fc_hole + Fc-knob_20GGS_IL1α delta 1-6_N29G_C141S (Fc fusion)
chain 1: B1 chain 1
chain 2: [letters of human IgG1 Fc with changes not shown]GGSGGSGGSGGSGGSGGSGGSGGSGGSGGSGGSGGSGGSGGSGGSGGSGGSGGSGGSGGSLSNVKYNFMRIIKYEFILNDALGQSIIRANDQYLTAAALHNLDEAVKFDMGAYKSSKDDAKITVILRISKTQLYVTAQDEDQPVLLKEMPEIPKTITGSETNLLFFWETHGTKNYFTSVAHPNLFIATKQDYWVSLAGGPPSITDFQILENQA
For B10, in the assay with human CD8 alpha [4], the “EC50 CD8 transfected” value amounted to 2.8e-07 ng/mL and the “Ratio (EC50 mock / CD8 transfected)” value is 9.3e+06. The “EC50 mock transfected” value with IL-1R (IL-1 Receptor) [5] worked out at 2.61 ng/mL.
